Test results taken from the antibiotic and cytotoxicity screens of Wong et al. (2023).
Some of the results follow.

Columns and labels:
HSkMC = human skeletal muscle cells; assay: cytotoxicity call (relative viability < 0.9); details: 10 µM
HepG2 = assay: cytotoxicity call (relative viability < 0.9); details: 10 µM
S. aureus RN4220 = assay: growth inhibition call (relative growth <= 0.2); details: 50 µM

SMILES | cytotoxicity call (HSkMC) | cytotoxicity call (HepG2) | growth inhibition call (S. aureus RN4220)
C[C@@H]1CCCCO[C@H](CN(C)S(=O)(=O)c2ccccc2)[C@H](C)CN([C@H](C)CO)C(=O)c2cc(NS(=O)(=O)c3ccc(Cl)cc3)ccc2O1 | inactive | inactive | inactive
COc1ccc(NC(=O)Nc2ccc3c(c2)CC(=O)N([C@@H](C)CO)C[C@H](C)[C@@H](CN(C)Cc2ccc(Cl)c(Cl)c2)O3)cc1 | inactive | active | inactive
CCNC(=O)C[C@H]1CC[C@H](NC(=O)C2CC2)[C@H](CO)O1 | inactive | inactive | inactive
CO/N=[N+](\[O-])N(C)C[C@@H](C)O | inactive | inactive | inactive
C[C@@H]1CCCCO[C@@H](CN(C)C(=O)c2ccncc2)[C@H](C)CN([C@H](C)CO)C(=O)c2cc(NC(=O)C3CCCCC3)ccc2O1 | inactive | inactive | inactive
O=C(O)Cn1cc(Br)c(=O)[nH]c1=O | inactive | inactive | inactive
C[C@H]1CN([C@@H](C)CO)C(=O)Cc2cc(NC(=O)Nc3ccc4c(c3)OCO4)ccc2O[C@@H]1CN(C)C(=O)Nc1cccc2ccccc12 | inactive | inactive | inactive
C[C@@H]1CCCCO[C@@H](CN(C)Cc2ccccc2)[C@@H](C)CN([C@@H](C)CO)C(=O)c2cc(NS(=O)(=O)c3ccc(Cl)cc3)ccc2O1 | inactive | inactive | inactive
O=C(O)C=C(O)C(=O)O | inactive | inactive | inactive
C[C@@H]1CN([C@@H](C)CO)C(=O)Cc2cc(NS(C)(=O)=O)ccc2O[C@@H]1CN(C)C(=O)Nc1ccc2c(c1)OCO2 | inactive | inactive | inactive
C[C@H]1CCCCO[C@@H](CN(C)Cc2ccc(C(F)(F)F)cc2)[C@@H](C)CN([C@@H](C)CO)C(=O)c2cc(NC(=O)CCC(F)(F)F)ccc2O1 | inactive | active | inactive
O=C(C[C@H]1C=C[C@H](NC(=O)CN2CCOCC2)[C@H](CO)O1)NC1CCC1 | inactive | inactive | inactive
CCCNC(=O)N1CC[C@]2(CC1)CN([C@H](CO)c1[nH]c3cc(ccc3c12)OC)C(=O)CN1CCOCC1 | inactive | inactive | inactive
CO[C@@H]1CN(C)C(=O)c2ccc(NC(=O)Nc3cccc(Cl)c3)cc2OC[C@H](C)N(C(=O)Nc2c(C)noc2C)C[C@@H]1C | inactive | inactive | inactive
C[C@H]1CN([C@@H](C)CO)C(=O)Cc2cc(NC(=O)NC3CCCCC3)ccc2O[C@H]1CN(C)Cc1ccc(C(=O)Nc2ccccc2N)cc1 | inactive | active | inactive
C[C@@H]1CN([C@H](C)CO)C(=O)c2cc(NC(=O)Nc3ccc(C(F)(F)F)cc3)ccc2O[C@H]1CN(C)C(=O)NC1CCCCC1 | inactive | inactive | inactive
Cc1noc(C)c1NC(=O)Nc1ccc2c(c1)CC(=O)N([C@H](C)CO)C[C@@H](C)[C@@H](CN(C)S(=O)(=O)c1cn(C)cn1)O2 | inactive | inactive | inactive
O=C1OCCC/C=C\[C@H]2O[C@@]34C=CCN(c5ccc6ccccc6c5)C(=O)[C@H]3N(CCCCCO)C(=O)[C@@H]4[C@@H]12 | inactive | inactive | inactive
O=C(C[C@H]1C=C[C@H](NC(=O)CN2CCOCC2)[C@@H](CO)O1)NC1CCC1 | inactive | inactive | inactive
C[C@H](CO)N1C[C@H](C)[C@H](CN(C)Cc2ccc(Oc3ccccc3)cc2)Oc2c(NC(=O)Nc3ccc(C(F)(F)F)cc3)cccc2C1=O | active | inactive | inactive
C=CC[C@@H](CC(=O)NCCO)C(=O)N[C@@H](COC(=O)[C@H](CC=C)CC(=O)OC(C)(C)C)Cc1c[nH]c2ccccc12 | inactive | inactive | inactive
C#Cc1ccc([C@H]2C=C(C(=O)N3CCN(Cc4ccc5c(c4)OCO5)CC3)O[C@@H](OCC)[C@@H]2CCCO)cc1 | inactive | inactive | inactive
O=C(C[C@@H]1CC[C@H]2[C@@H](COC[C@H](O)CN2S(=O)(=O)c2ccc(Cl)cc2)O1)NCC1CCCCC1 | inactive | inactive | inactive
C[C@@H]1CCCCO[C@H](CN(C)C(=O)Nc2ccc(F)cc2)[C@@H](C)CN([C@@H](C)CO)C(=O)c2cc(NS(=O)(=O)c3ccc(Cl)cc3)ccc2O1 | inactive | active | inactive
C[C@@H]1O[C@H](O[C@@H]2[C@H](Oc3c(-c4ccc(O)cc4)oc4cc(O)cc(O)c4c3=O)O[C@H](CO[C@@H]3O[C@H](C)[C@@H](O)[C@H](O)[C@@H]3O)[C@@H](O)[C@@H]2O)[C@@H](O)[C@H](O)[C@@H]1O | inactive | inactive | inactive
